Experimental data as given in PMC6919601, “Identification of Plasmodium dipeptidyl aminopeptidase allosteric inhibitors by high throughput screening” (PLoS ONE, 2019).
The whole screen tested about 110,000 compounds, of which about 230 (0.21%) showed an effect of 50% or more. Some of the results follow.

What follows are compounds tested against DPAP1 (Plasmodium falciparum, UniProt Q8IIJ9) (assay: primary screen, percent inhibition; read by cleavage of a fluorogenic dipeptide substrate; higher = more effect of the substance).
Sequence of DPAP1 (Q8IIJ9 whole entry, looked up): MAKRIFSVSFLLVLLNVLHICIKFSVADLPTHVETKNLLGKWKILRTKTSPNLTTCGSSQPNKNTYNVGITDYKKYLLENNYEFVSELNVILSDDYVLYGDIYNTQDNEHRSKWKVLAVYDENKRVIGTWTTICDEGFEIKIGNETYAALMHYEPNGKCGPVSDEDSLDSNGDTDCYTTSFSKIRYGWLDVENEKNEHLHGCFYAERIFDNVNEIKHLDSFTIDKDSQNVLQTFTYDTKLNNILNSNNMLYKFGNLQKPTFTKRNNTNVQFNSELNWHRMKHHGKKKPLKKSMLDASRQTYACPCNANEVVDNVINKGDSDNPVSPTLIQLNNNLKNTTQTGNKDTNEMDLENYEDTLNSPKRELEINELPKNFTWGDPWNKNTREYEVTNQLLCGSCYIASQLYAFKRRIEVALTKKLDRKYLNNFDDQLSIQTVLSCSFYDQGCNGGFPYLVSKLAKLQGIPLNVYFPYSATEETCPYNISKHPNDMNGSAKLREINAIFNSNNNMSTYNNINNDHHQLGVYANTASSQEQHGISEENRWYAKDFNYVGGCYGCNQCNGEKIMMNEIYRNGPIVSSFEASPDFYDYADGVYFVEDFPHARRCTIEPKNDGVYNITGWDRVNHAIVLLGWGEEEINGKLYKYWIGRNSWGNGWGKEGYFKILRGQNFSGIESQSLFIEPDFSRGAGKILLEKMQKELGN
Set-up: species or system P. falciparum D10 trophozoite lysates; single well
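Note: 30 min substrate incubation versus DMSO and 10 µM JCP410 controls.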

Structure (SMILES)	% Inhibition @ 10 uM [%]
COC(=O)/C(C#N)=C/c1c(Oc2cccc(C)c2C)nc2ccccn2c1=O	-5.1
CCn1c(=O)c(C(=O)Nc2ccccc2C)c(O)c2ccccc21	1.83
COc1ccc2oc(C(=O)c3ccccc3)c(NC(=O)CCCN3C(=O)c4ccccc4C3=O)c2c1	2.7
O=C(CSc1nnc(-c2ccc(Cl)cc2)o1)N1CCOCC1	6.13
O=C(c1ccccc1Cl)n1nc(-c2ccco2)nc1NCc1ccccc1	-3.24
C=CCCC(C)(O)C#CCN(CC)CC (stereo not shown)	-0.736
CS(=O)(=O)N1CCN(c2ccc(NC(=O)c3ccc(C#N)cc3F)cc2)CC1	-6.02
CCCCN(C)C(=S)Nc1c(C(=O)OCC)[nH]c2ccc(OC)cc12	-3.13
COc1ccc(N(Cc2ccc(F)cc2)C(=O)COc2ccc3ccccc3c2)cc1	-2.03
CCc1ccccc1NC(=O)CN(c1ccc(C)c(Cl)c1)S(C)(=O)=O	-1.43
Nc1nc(-c2ccccc2)c(C(=O)Nc2ccc(Cl)cc2)s1	1.24
Cc1ccc(CNC(=O)CSc2nc3nccnc3c(=O)n2Cc2cccs2)cc1	-0.659
Cc1ccc(-c2nc(O)nc(-c3ccc(C)cc3)n2)cc1	3.25
Cc1ccc(C(=O)Nc2ccc(C(C)C)cc2)cc1	-1.25
O=C(Nc1cccc(NC(=O)c2ccccc2F)n1)c1ccccc1F	4.81
CC(C)C(NS(=O)(=O)c1cccs1)C(=O)Nc1nc(C(C)(C)C)cs1 (stereo not shown)	-3.44
Cc1noc(C(=O)Nc2cccnc2)c1Cl	-3.45
CCc1ccc(CNC(=O)CCC(=O)n2ncc3cc(Cl)ccc32)cc1	-4.68
CCn1cc(Br)c(C(=O)Nc2ccccc2C(C)(C)C)n1	-0.67
COc1ccccc1C1C2=C(O)CCCC2=NC(C)=C1C(=O)Nc1ccc(Br)cn1 (stereo not shown)	1.4
Cc1ccc(S(=O)(=O)NC(C(=O)Oc2ccc([N+](=O)[O-])cc2)C(C)C)cc1 (stereo not shown)	17
O=S1(=O)N=C(Nc2ccccc2)c2ccccc21	-1.5
CC1CN(C(=O)c2ccccc2)CCC1(O)c1ccccc1 (stereo not shown)	-1.07
CCN1C(=O)/C(=C\c2ccc(OC)cc2OC)S/C1=N/c1ccccc1	-2.92
O=C(c1ccco1)N1CCN(Cc2cccc(Br)c2)CC1	-2.37
Fc1cccc(CN2CCN(Cc3ccccc3)CC2)c1	-1.77
Cc1ccc2c(c1)c1c3n2CCN(C(=O)CN2CCOCC2)C3CCC1 (stereo not shown)	-2.63
Brc1ccc(CN2CCC(Cc3ccccc3)CC2)o1	-4.5
